Experimental data taken from the supplement of paper PMC3334620.
The full ranking holds about 33,000 sequences; the median of “E-score (-0.5 to 0.5)” is about -0.013, and the highest 2% start at about 0.3. This is one part of the list.

Each sequence was assayed against T1, Msn1 (UniProt P22148) (assay: PBM E-score (8-mer binding enrichment) (E-score (-0.5 to 0.5)); higher = stronger / more preferred TF binding; most listed sequences are background and not binding sites). Conditions: protein concentration: 200 nM; construct: GST-full length.
T1 sequence: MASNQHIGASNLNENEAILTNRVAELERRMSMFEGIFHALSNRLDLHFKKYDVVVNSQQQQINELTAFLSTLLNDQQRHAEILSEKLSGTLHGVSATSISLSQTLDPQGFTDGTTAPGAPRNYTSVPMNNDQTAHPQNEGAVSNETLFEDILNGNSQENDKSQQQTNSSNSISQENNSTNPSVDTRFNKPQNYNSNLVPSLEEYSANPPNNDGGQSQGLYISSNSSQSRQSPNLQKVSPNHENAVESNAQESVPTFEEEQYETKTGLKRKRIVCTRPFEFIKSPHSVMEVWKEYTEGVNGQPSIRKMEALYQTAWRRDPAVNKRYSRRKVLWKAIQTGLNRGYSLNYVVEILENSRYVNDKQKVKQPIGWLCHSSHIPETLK
Experimental: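 Universal 'all 10-mer' protein binding microarrays (Agilent AMADID 015681) probed with GST-tagged S. cerevisiae TFs (full-length or DBD) made by in vitro transcription/translation (PURExpress), about 100-200 nM. Bound TF was detected with fluorescent anti-GST. Each ungapped 8-mer (which stands for itself and its reverse complement) is scored by the PBM enrichment score (E-score), a modified Wilcoxon-Mann-Whitney statistic from -0.5 to +0.5, computed with the Universal PBM Analysis Suite. Scale: above 0.35 generally sequence-specific binding.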

| Sequence | PBM E-score |
| --- | --- |
| CTGATGGA | -0.0214 |
| ACGCCTTG | 0.0227 |
| AGTCTGAA | 0.029 |
| AAAGCTTT | 0.195 |
| ACTCAGAC | 0.207 |
| AGTACGGA | 0.15 |
| AAAACAGT | 0.184 |
| ACAGCCCG | -0.146 |
| ATAGTCTC | 0.16 |
| ATGAGTTC | 0.0167 |
| ATAACCGG | -0.00703 |
| AGACTATG | 0.0207 |
| GTATTATA | 0.253 |
| ATAATTGG | 0.073 |
| ATATGAAA | 0.147 |
| AATATAGT | 0.234 |
| CTGCAGTC | -0.0842 |
| TCCGACCA | 0.0392 |
| TATCAGAA | 0.132 |
| AAATTACC | 0.14 |
| AGAGTAGC | -0.196 |
| GAGAAAAC | 0.0544 |

| Sequence | PBM E-score |
| --- | --- |
| AAAAAAAT | 0.159 |
| GAAAACGA | 0.0898 |
| CTCAGAGC | -0.244 |
| TGGTAACA | 0.0506 |
| CGCGCCTA | -0.0716 |
| GAGCAGAA | -0.00842 |
| GGATAGGA | 0.0457 |
| ACTTGGAT | 0.138 |
| TGAGTAAA | -0.023 |
| TTAAATAA | 0.0386 |
| ACAAGGCG | 0.159 |
| TCGCGCAA | 0.206 |
| ATCCGTAA | -0.0135 |
| CGTGGAGC | -0.194 |
| CAGGAATG | -0.173 |
| AACACATT | 0.0513 |
| CAACACTA | 0.148 |
| GAAATGGA | -0.0913 |
| ACTATGCT | 0.034 |
| AGTTGTCG | 0.168 |
| AGATGTCG | 0.0151 |
| ACCCGCGA | 0.0658 |

| Sequence | PBM E-score |
| --- | --- |
| AACTCGGG | 0.0969 |
| AGGCGGCA | -0.177 |
| CCTAAGAC | -0.0344 |
| GGCAACCC | -0.211 |
| CATGGTCG | 0.119 |
| GGGCGCTA | -0.352 |
| ATCCCAAG | -0.0639 |
| ACCCACAC | -0.23 |
| TGTCTAAA | 0.38 |
| CGTCCAAG | -0.0431 |
| ATCTTATC | -0.0052 |
| AATCGTTC | 0.0614 |
| ATCTGAAG | -0.159 |
| AGTTGATG | 0.111 |
| CCTGGGTC | -0.144 |
| AAGTACAG | 0.0535 |
| CGCAGCAA | -0.155 |
| AAATTGCT | 0.0514 |
| GACGCAGA | 0.0316 |
| GGAAGGAC | 0.283 |
| GAGTTAAA | -0.0264 |
| GAGGGCGC | -0.212 |

| Sequence | PBM E-score |
| --- | --- |
| CATAGATG | -0.0856 |
| GGAGAGCA | -0.149 |
| CAGTAATA | 0.231 |
| CGAGCGGA | 0.0354 |
| CAATGCAC | -0.0497 |
| GGGACTAC | -0.163 |
| CTTGGTAC | 0.141 |
| AATATGCC | -0.141 |
| CTGATTAA | 0.108 |
| CTTTTCAC | 0.124 |
| AGAGGCTC | -0.262 |
| CATTAATG | 0.133 |
| ACGGGCAG | -0.0886 |
| CCACAGTA | -0.0299 |
| GAGATTAA | 0.0845 |
| ATTTGTTA | 0.087 |
| ATCTTCAT | -0.0449 |
| CTTGTTTC | 0.0482 |
| GATGAACA | 0.104 |
| ACCCTCTA | -0.172 |
